Measured values reported in PubChem BioAssay AID540317 (National Center for Advancing Translational Sciences (NCATS), 2011).
Hit rate of the full screen: of about 390,000 compounds, about 2,200 (0.56%) were called active. This list was built around the results that the source calls inconclusive (neither active nor inactive); the mix of calls is not that of the screen. The call rests on the fitted dose curve; in most records, active means well fitted inhibition curve with a large enough effect; inconclusive means small, poorly fitted or top-dose-only effect; inactive means no such curve, though single readings can be large or run the other way. Where the call is inconclusive, the potency comes from a doubtful curve fit.

Target: Chromobox protein homolog 1 (Homo sapiens) (UniProt P83916)
Assay: HTS for Inhibitors of HP1-beta Chromodomain Interactions with Methylated Histone Tails; further: nearly all actives have a fitted effect of over 70% in size
Settings: AlphaScreen HP1-beta / biotin-H3K9me3 peptide binding; series mostly up to 114 µM; activity change, negative = inhibition: at the top concentration
How it was run: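 HP1-beta protein (50 nM final) preincubated 30 min at room temperature with biotinylated H3(1-18)K9me3 peptide (50 nM) in PBS pH 7.4, 0.01% Tween-20, then compound added for 30 min. AlphaScreen streptavidin donor/nickel chelate acceptor beads (10 ug/mL final), 30 min dark, luminescence read.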
Potency means the concentration at half of the fitted maximal effect; tags describe the fitted curve by direction and shape.

UniProt P83916, sequence (P83916 whole entry, looked up): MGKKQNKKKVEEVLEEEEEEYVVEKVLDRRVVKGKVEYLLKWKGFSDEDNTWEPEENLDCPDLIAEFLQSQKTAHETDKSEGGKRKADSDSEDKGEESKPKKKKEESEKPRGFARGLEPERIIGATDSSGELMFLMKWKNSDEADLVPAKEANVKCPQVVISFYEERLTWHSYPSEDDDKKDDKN

Row | SMILES | Potency | activity change, negative = inhibition
1 | Cn1c(-c2ccc(F)cc2)cnc1NCc1ccccc1F | inconclusive: 39.8 µM [inhibitor, partial curve] | –
2 | O=C(CCSc1ccc(Cl)cc1)N1CCN(c2ccc(O)cc2)CC1 | inconclusive: 50.1 µM [inhibitor, partial curve] | –
3 | CC1(C)CC(=O)C(N=Nc2ccc(Cl)cc2)=C(O)C1 | – | inactive: 23%
4 | O=C(CSc1ccccn1)N1CCN(c2ccccc2)CC1 | – | inactive: 2.62%
5 | CCNc1nc(NCC)n2c(SCC(=O)Nc3ccccc3[N+](=O)[O-])nnc2n1 | – | inactive: 14.1%
6 | CCc1ccc(NC(=O)CCc2nc3sc4c(c3c(=O)[nH]2)CCCC4)cc1 | – | inactive: 30.3%
7 | COC(=O)c1cc(C(=O)N2CCN(c3cccc(C)c3C)CC2)cc([N+](=O)[O-])c1 | inconclusive: 28.2 µM [inhibitor, partial curve] | –
8 | O=S(=O)(Nc1cccc(-c2ccc(N3CCCCC3)nn2)c1)c1ccc(Cl)s1 | – | inactive: 20.8% [at 57 µM]
9 | C#CCOCCOCCOCCNc1nc(N2CCN(C(=O)Cn3cc(CCCCN)nn3)CC2)nc(N2CCN(C(=O)[C@H](C(C)C)n3cc(CCO)nn3)CC2)n1 | – | inactive: 33.1%
10 | CN(CCO)CCOCCOc1cccc2ccccc12 | inconclusive: 50.1 µM [inhibitor, partial curve, poor fit] | –
11 | Cc1cc(NC(=O)CCC(=O)N(CC2CCCO2)C(C(=O)NC2CCCC2)c2cccnc2)no1 (configuration not stated) | inconclusive: 39.8 µM [inhibitor, single point] | –
12 | COc1cc(C)c(CNc2cccc(C)c2)cc1C | inconclusive: 56.2 µM [inhibitor, partial curve] | –
13 | COc1cc(NS(=O)(=O)c2ccc(NC(=S)NC(=O)c3sc4cc(F)ccc4c3Cl)cc2)nc(OC)n1 | inconclusive: 8.91 µM [inhibitor, full curve] | –
14 | CCCOc1ccc(OCCNC2CCCC2)cc1 | inconclusive: 20 µM [inhibitor, single point] | –
15 | Cc1ccccc1OCCNc1cc(N2CCCCC2)ccc1[N+](=O)[O-] | inconclusive: 28.2 µM [inhibitor, partial curve] | –
16 | Cc1cc(/C=N/n2cnnc2)c(C)n1-c1ccc(OCc2ccc(Cl)cc2Cl)cc1 | inconclusive: 22.4 µM [inhibitor, full curve] | –
17 | CN(CC(=O)Nc1ccc(F)cc1F)S(=O)(=O)c1ccc(C(=O)N2CCOCC2)s1 | – | inactive: -1.98%
18 | CC(C)c1ccccc1OCC(O)CN1CCN(S(=O)(=O)c2ccc([N+](=O)[O-])cc2)CC1 (configuration not stated) | inconclusive: 35.5 µM [inhibitor, partial curve] | –
19 | COc1cc(N2C(=O)C=CC2=O)ccc1N1C(=O)C=CC1=O | inconclusive: 2.82 µM [inhibitor, full curve, poor fit] | –
20 | Clc1ccc(SCCOCCN2CCCCC2)cc1 | inconclusive: 89.1 µM [inhibitor, single point] | –
21 | Nc1cc(=O)[nH]c(SCC(=O)Nc2cc([N+](=O)[O-])ccc2Cl)n1 | inconclusive: 39.8 µM [inhibitor, full curve] | –
22 | Cc1cccc(C(=O)OCCN2CCOCC2)c1 | – | inactive: 35.9%
23 | COC(=O)CCCC(=O)NC(C)c1cnn(-c2ccccc2C)c1C (configuration not stated) | – | inactive: 25.4%

Row | SMILES | Potency | activity change, negative = inhibition
24 | Cn1c2ccccc2c2cc(/C=N/NC(=O)c3cc(O)ccc3O)ccc21 | inconclusive: 56.2 µM [inhibitor, partial curve, poor fit] | –
25 | O=[N+]([O-])c1ccc(Cl)c(/C=N/N2CCN(c3ccccc3)CC2)c1 | inconclusive: 10 µM [inhibitor, partial curve, poor fit] | –
26 | N=c1c2c(-c3ccccc3)c(-c3ccccc3)n(Cc3ccco3)c2ncn1Cc1ccco1 | inconclusive: 89.1 µM [inhibitor, single point] | –
27 | Cc1cc(/C=C\c2ccc3cc(N(C)C)ccc3[n+]2C)c(C)n1-c1ccccc1 | inconclusive: 35.5 µM [inhibitor, partial curve] | –
28 | O=C(CSc1nnc(C2CCCCC2)n1Cc1ccccc1)NCc1ccco1 | inconclusive: 28.2 µM [inhibitor, full curve] | –
29 | CCc1sc(C(=O)Nc2ccc3c(c2)OCO3)cc1C | inconclusive: 44.7 µM [inhibitor, partial curve, poor fit] | –
30 | CCN1CCN(c2nc3c(C)cccn3c(=O)c2/C=C(\C#N)S(=O)(=O)c2ccc(Cl)cc2)CC1 | inconclusive: 50.1 µM [inhibitor, partial curve] | –
31 | COc1ccc(NCc2cc3ccccc3[nH]c2=O)cc1 | – | inactive: -8.74%
32 | CCCN(Cc1nnc(-c2ccccc2Cl)o1)C(=O)c1oc2ccccc2c1C | – | inactive: 65.8%
33 | O=C(CCN1CCCCCC1)Nc1ccc2c(c1)OCCO2 | inconclusive: 44.7 µM [inhibitor, partial curve] | –
34 | CC(NC(=O)c1ccco1)C(=O)OCc1cccc(Cl)c1 (configuration not stated) | inconclusive: 25.1 µM [inhibitor, partial curve, poor fit] | –
35 | O=C(NCc1ccncc1)C1CCCCC1 | inconclusive: 39.8 µM [inhibitor, single point] | –
36 | O=C(c1ccccc1)N(Cc1cccnc1)C1(C(=O)Nc2ccccc2)CCCCC1 | inconclusive: 39.8 µM [inhibitor, single point] | –
37 | O=C(NC(=S)Nc1ccccc1N1CCCC1)c1cccc(F)c1 | inconclusive: 28.2 µM [inhibitor, full curve] | –
38 | O=C(NCCNC1CCCCC1)c1ccco1 | inconclusive: 79.4 µM [inhibitor, partial curve] | –
39 | c1cn(CCCNC2CCCCCCC2)cn1 | inconclusive: 56.2 µM [inhibitor, single point] | –
40 | Cc1c(CN(C)C)c2c(n1Cc1ccccc1)C(=O)c1ccccc1-2 | inconclusive: 56.2 µM [inhibitor, single point] | –
41 | O=C1C(=Cc2ccc(Br)o2)C(=O)c2ccccc21 | inconclusive: 31.6 µM [inhibitor, partial curve, poor fit] | –
42 | CCc1cccc2c1NC(=O)C21N2CCCC2C(C(=O)c2ccc3ccccc3c2)C12C(=O)Nc1ccccc12 (configuration not stated) | inconclusive: 28.2 µM [inhibitor, single point] | –
43 | CCCN1C(=O)/C(=C/C=C2\N(CC)c3ccccc3C2(C)C)SC1=S | active: 10 µM | –
44 | CN(C)CCCOc1cccc(Cl)c1 | inconclusive: 31.6 µM [inhibitor, partial curve, poor fit] | –
45 | Cn1nnnc1N=N/C(=N/Nc1ccccc1)c1ccccc1 | active: 28.2 µM | –
46 | CCCNC(=O)Cc1c(OC)ccc2cc(Br)ccc12 | inconclusive: 39.8 µM [inhibitor, single point] | –

Row | SMILES | Potency | activity change, negative = inhibition
47 | O=C(NCc1nc2ccccc2[nH]1)C1=C[C@@H](c2csc3ccccc23)C[C@@H](OCCCCO)O1 | inconclusive: 79.4 µM [inhibitor, single point] | –
48 | Cc1ccc(Cl)c(OCCN2CCCC(C)C2)c1 (configuration not stated) | inconclusive: 3.16 µM [inhibitor, full curve, poor fit] | –
49 | N#C/C(=C\c1ccc(O)c(O)c1)C(=O)NCCc1ccccc1 | inconclusive: 7.94 µM [inhibitor, full curve] | –
50 | CC(C)(C)Cc1nnc(NC(=O)Cc2cccs2)s1 | inconclusive: 25.1 µM [inhibitor, single point] | –
51 | N#CCC(=O)Nc1ccc(C(=O)OCC(=O)NC(=O)NCc2ccco2)cc1 | – | inactive: -2.84%
52 | CC(=O)c1sc2nsc(SCCN3CCCC3)c2c1N | inconclusive: 56.2 µM [inhibitor, single point] | –
53 | CCCN1CCC(=NNc2ccc(S(=O)(=O)N(CC)CC)cc2[N+](=O)[O-])CC1 | inconclusive: 22.4 µM [inhibitor, full curve] | –
54 | Oc1ccc(C2=Nn3c(nnc3-c3ccco3)SC2)cc1O | inconclusive: 22.4 µM [inhibitor, partial curve] | –
55 | COCc1nnc(NC(=O)COc2ccc3c(c2)OCO3)s1 | inconclusive: 56.2 µM [inhibitor, partial curve, poor fit] | –
56 | CN(C)c1ccc(N=Nc2ccccc2C(=O)OCC(=O)Nc2ccccc2C(F)(F)F)cc1 | inconclusive: 7.08 µM [inhibitor, full curve, poor fit] | –
57 | CCC(CO)Oc1cc(NCc2ccc(F)cc2)c2ncn(C(C)C)c2c1 (configuration not stated) | inconclusive: 50.1 µM [inhibitor, partial curve] | –
58 | COc1cc2nc(COc3ccccc3[N+](=O)[O-])oc(=O)c2cc1OC | inconclusive: 31.6 µM [inhibitor, single point] | –
59 | CCCc1[nH]n(-c2nc3ccccc3s2)c(=O)c1C=NCC(C)C | – | inactive: 31.4%
60 | CC1CCCCC12NC(=O)N(CC(=O)N1CCN(c3ncccn3)CC1)C2=O (configuration not stated) | – | inactive: 25.9%
61 | O=C(COC(=O)c1ccc(NS(=O)(=O)c2cccs2)cc1O)Nc1nc2ccccc2s1 | – | inactive: 13.3%
62 | CN(C)c1ccc(CNC(=O)C2CCN(C(=O)c3ccc(-n4ccc5ccccc54)s3)CC2)cc1 | inconclusive: 35.5 µM [inhibitor, partial curve] | –
63 | CCC(C)c1ccccc1NC(=O)COC(=O)c1ccc2[nH]c3c(c2c1)CCCC3 (configuration not stated) | inconclusive: 11.2 µM [inhibitor, partial curve] | –
64 | COc1cccc2c1cc1c(=O)n(CC(=O)NCCCN3CCN(C)CC3)nc(C)n12 | inactive | –
65 | O=C(c1cccc(Cl)c1)N1CCN(Cc2ccncc2)CC1 | inconclusive: 31.6 µM [inhibitor, partial curve, poor fit] | –
66 | CCOC(=O)c1c(C)[nH]c(N=Nc2ccc(OC)cc2)c1C | inconclusive: 17.8 µM [inhibitor, full curve] | –
67 | COc1nccnc1NS(=O)(=O)c1ccc(NC(=O)c2ccccc2Br)cc1 | inconclusive: 89.1 µM [inhibitor, partial curve, poor fit] | –
